We go through eight molecules from the supplement of paper PMC12423691.

This is one part of the list. Binding of human transcription factors and regulators to the viral nucleoprotein by AlphaScreen, crude cell-free proteins, amounts not normalised, one pass. Fold of the Venus control; higher = more signal. No active / inactive call. Single-pass screen; sequences are the whole Swiss-Prot entries looked up by name.

First the molecules themselves.
B1: SREBF1, P36956 (protein)
chain: MDEPPFSEAALEQALGEPCDLDAALLTDIEDMLQLINNQDSDFPGLFDPPYAGSGAGGTDPASPDTSSPGSLSPPPATLSSSLEAFLSGPQAAPSPLSPPQPAPTPLKMYPSMPAFSPGPGIKEESVPLSILQTPTPQPLPGALLPQSFPAPAPPQFSSTPVLGYPSPPGGFSTGSPPGNTQQPLPGLPLASPPGVPPVSLHTQVQSVVPQQLLTVTAAPTAAPVTTTVTSQIQQVPVLLQPHFIKADSLLLTAMKTDGATVKAAGLSPLVSGTTVQTGPLPTLVSGGTILATVPLVVDAEKLPINRLAAGSKAPASAQSRGEKRTAHNAIEKRYRSSINDKIIELKDLVVGTEAKLNKSAVLRKAIDYIRFLQHSNQKLKQENLSLRTAVHKSKSLKDLVSACGSGGNTDVLMEGVKTEVEDTLTPPPSDAGSPFQSSPLSLGSRGSGSGGSGSDSEPDSPVFEDSKAKPEQRPSLHSRGMLDRSRLALCTLVFLCLSCNPLASLLGARGLPSPSDTTSVYHSPGRNVLGTESRDGPGWAQWLLPPVVWLLNGLLVLVSLVLLFVYGEPVTRPHSGPAVYFWRHRKQADLDLARGDFAQAAQQLWLALRALGRPLPTSHLDLACSLLWNLIRHLLQRLWVGRWLAGRAGGLQQDCALRVDASASARDAALVYHKLHQLHTMGKHTGGHLTATNLALSALNLAECAGDAVSVATLAEIYVAAALRVKTSLPRALHFLTRFFLSSARQACLAQSGSVPPAMQWLCHPVGHRFFVDGDWSVLSTPWESLYSLAGNPVDPLAQVTQLFREHLLERALNCVTQPNPSPGSADGDKEFSDALGYLQLLNSCSDAAGAPAYSFSISSSMATTTGVDPVAKWWASLTAVVIHWLRRDEEAAERLCPLVEHLPRVLQESERPLPRAALHSFKAARALLGCAKAESGPASLTICEKASGYLQDSLATTPASSSIDKAVQLFLCDLLLVVRTSLWRQQQPPAPAPAAQGTSSRPQASALELRGFQRDLSSLRRLAQSFRPAMRRVFLHEATARLMAGASPTRTHQLLDRSLRRRAGPGGKGGAVAELEPRPTRREHAEALLLASCYLPPGFLSAPGQRVGMLAEAARTLEKLGDRRLLHDCQQMLMRLGGGTTVTSS
B2: BACH1, O14867 (protein)
chain: MSLSENSVFAYESSVHSTNVLLSLNDQRKKDVLCDVTIFVEGQRFRAHRSVLAACSSYFHSRIVGQADGELNITLPEEVTVKGFEPLIQFAYTAKLILSKENVDEVCKCVEFLSVHNIEESCFQFLKFKFLDSTADQQECPRKKCFSSHCQKTDLKLSLLDQRDLETDEVEEFLENKNVQTPQCKLRRYQGNAKASPPLQDSASQTYESMCLEKDAALALPSLCPKYRKFQKAFGTDRVRTGESSVKDIHASVQPNERSENECLGGVPECRDLQVMLKCDESKLAMEPEETKKDPASQCPTEKSEVTPFPHNSSIDPHGLYSLSLLHTYDQYGDLNFAGMQNTTVLTEKPLSGTDVQEKTFGESQDLPLKSDLGTREDSSVASSDRSSVEREVAEHLAKGFWSDICSTDTPCQMQLSPAVAKDGSEQISQKRSECPWLGIRISESPEPGQRTFTTLSSVNCPFISTLSTEGCSSNLEIGNDDYVSEPQQEPCPYACVISLGDDSETDTEGDSESCSAREQECEVKLPFNAQRIISLSRNDFQSLLKMHKLTPEQLDCIHDIRRRSKNRIAAQRCRKRKLDCIQNLESEIEKLQSEKESLLKERDHILSTLGETKQNLTGLCQKVCKEAALSQEQIQILAKYSAADCPLSFLISEKDKSTPDGELALPSIFSLSDRPPAVLPPCARGNSEPGYARGQESQQMSTATSEQAGPAEQCRQSGGISDFCQQMTDKCTTDE
B3: BARX2, Q9UMQ3 (protein)
chain: MHCHAELRLSSPGQLKAARRRYKTFMIDEILSKETCDYFEKLSLYSVCPSLVVRPKPLHSCTGSPSLRAYPLLSVITRQPTVISHLVPATPGIAQALSCHQVTEAVSAEAPGGEALASSESETEQPTPRQKKPRRSRTIFTELQLMGLEKKFQKQKYLSTPDRLDLAQSLGLTQLQVKTWYQNRRMKWKKMVLKGGQEAPTKPKGRPKKNSIPTSEEIEAEEKMNSQAQGQEQLEPSQGQEELCEAQEPKARDVPLEMAEPPDPPQELPIPSSEPPPLS
B4: ZFP36L2, P47974 (protein)
chain: MSTTLLSAFYDVDFLCKTEKSLANLNLNNMLDKKAVGTPVAAAPSSGFAPGFLRRHSASNLHALAHPAPSPGSCSPKFPGAANGSSCGSAAAGGPTSYGTLKEPSGGGGTALLNKENKFRDRSFSENGDRSQHLLHLQQQQKGGGGSQINSTRYKTELCRPFEESGTCKYGEKCQFAHGFHELRSLTRHPKYKTELCRTFHTIGFCPYGPRCHFIHNADERRPAPSGGASGDLRAFGTRDALHLGFPREPRPKLHHSLSFSGFPSGHHQPPGGLESPLLLDSPTSRTPPPPSCSSASSCSSSASSCSSASAASTPSGAPTCCASAAAAAAAALLYGTGGAEDLLAPGAPCAACSSASCANNAFAFGPELSSLITPLAIQTHNFAAVAAAAYYRSQQQQQQQGLAPPAQPPAPPSATLPAGAAAPPSPPFSFQLPRRLSDSPVFDAPPSPPDSLSDRDSYLSGSLSSGSLSGSESPSLDPGRRLPIFSRLSISDD
B5: TFAM, Q00059 (protein)
chain: MAFLRSMWGVLSALGRSGAELCTGCGSRLRSPFSFVYLPRWFSSVLASCPKKPVSSYLRFSKEQLPIFKAQNPDAKTTELIRRIAQRWRELPDSKKKIYQDAYRAEWQVYKEEISRFKEQLTPSQIMSLEKEIMDKHLKRKAMTKKKELTLLGKPKRPRSAYNVYVAERFQEAKGDSPQEKLKTVKENWKNLSDSEKELYIQHAKEDETRYHNEMKSWEEQMIEVGRKDLLRRTIKKQRKYGAEEC
B6: STAG1, Q8WVM7 (protein)
chain: MITSELPVLQDSTNETTAHSDAGSELEETEVKGKRKRGRPGRPPSTNKKPRKSPGEKSRIEAGIRGAGRGRANGHPQQNGEGEPVTLFEVVKLGKSAMQSVVDDWIESYKQDRDIALLDLINFFIQCSGCRGTVRIEMFRNMQNAEIIRKMTEEFDEDSGDYPLTMPGPQWKKFRSNFCEFIGVLIRQCQYSIIYDEYMMDTVISLLTGLSDSQVRAFRHTSTLAAMKLMTALVNVALNLSIHQDNTQRQYEAERNKMIGKRANERLELLLQKRKELQENQDEIENMMNSIFKGIFVHRYRDAIAEIRAICIEEIGVWMKMYSDAFLNDSYLKYVGWTLHDRQGEVRLKCLKALQSLYTNRELFPKLELFTNRFKDRIVSMTLDKEYDVAVEAIRLVTLILHGSEEALSNEDCENVYHLVYSAHRPVAVAAGEFLHKKLFSRHDPQAEEALAKRRGRNSPNGNLIRMLVLFFLESELHEHAAYLVDSLWESSQELLKDWECMTELLLEEPVQGEEAMSDRQESALIELMVCTIRQAAEAHPPVGRGTGKRVLTAKERKTQIDDRNKLTEHFIITLPMLLSKYSADAEKVANLLQIPQYFDLEIYSTGRMEKHLDALLKQIKFVVEKHVESDVLEACSKTYSILCSEEYTIQNRVDIARSQLIDEFVDRFNHSVEDLLQEGEEADDDDIYNVLSTLKRLTSFHNAHDLTKWDLFGNCYRLLKTGIEHGAMPEQIVVQALQCSHYSILWQLVKITDGSPSKEDLLVLRKTVKSFLAVCQQCLSNVNTPVKEQAFMLLCDLLMIFSHQLMTGGREGLQPLVFNPDTGLQSELLSFVMDHVFIDQDEENQSMEGDEEDEANKIEALHKRRNLLAAFSKLIIYDIVDMHAAADIFKHYMKYYNDYGDIIKETLSKTRQIDKIQCAKTLILSLQQLFNELVQEQGPNLDRTSAHVSGIKELARRFALTFGLDQIKTREAVATLHKDGIEFAFKYQNQKGQEYPPPNLAFLEVLSEFSSKLLRQDKKTVHSYLEKFLTEQMMERREDVWLPLISYRNSLVTGGEDDRMSVNSGSSSSKTSSVRNKKGRPPLHKKRVEDESLDNTWLNRTDTMIQTPGPLPAPQLTSTVLRENSRPMGDQIQEPESEHGSEPDFLHNPQMQISWLGQPKLEDLNRKDRTGMNYMKVRTGVRHAVRGLMEEDAEPIFEDVMMSSRSQLEDMNEEFEDTMVIDLPPSRNRRERAELRPDFFDSAAIIEDDSGFGMPMF
B7: JUNB, P17275 (protein)
chain: MCTKMEQPFYHDDSYTATGYGRAPGGLSLHDYKLLKPSLAVNLADPYRSLKAPGARGPGPEGGGGGSYFSGQGSDTGASLKLASSELERLIVPNSNGVITTTPTPPGQYFYPRGGGSGGGAGGAGGGVTEEQEGFADGFVKALDDLHKMNHVTPPNVSLGATGGPPAGPGGVYAGPEPPPVYTNLSSYSPASASSGGAGAAVGTGSSYPTTTISYLPHAPPFAGGHPAQLGLGRGASTFKEEPQTVPEARSRDATPPVSPINMEDQERIKVERKRLRNRLAATKCRKRKLERIARLEDKVKTLKAENAGLSSTAGLLREQVAQLKQKVMTHVSNGCQLLLGVKGHAF
B8: TAF5, Q15542 (protein)
chain: MAALAEEQTEVAVKLEPEGPPTLLPPQAGDGAGEGSGGTTNNGPNGGGGNVAASSSTGGDGGTPKPTVAVSAAAPAGAAPVPAAAPDAGAPHDRQTLLAVLQFLRQSKLREAEEALRREAGLLEEAVAGSGAPGEVDSAGAEVTSALLSRVTASAPGPAAPDPPGTGASGATVVSGSASGPAAPGKVGSVAVEDQPDVSAVLSAYNQQGDPTMYEEYYSGLKHFIECSLDCHRAELSQLFYPLFVHMYLELVYNQHENEAKSFFEKFHGDQECYYQDDLRVLSSLTKKEHMKGNETMLDFRTSKFVLRISRDSYQLLKRHLQEKQNNQIWNIVQEHLYIDIFDGMPRSKQQIDAMVGSLAGEAKREANKSKVFFGLLKEPEIEVPLDDEDEEGENEEGKPKKKKPKKDSIGSKSKKQDPNAPPQNRIPLPELKDSDKLDKIMNMKETTKRVRLGPDCLPSICFYTFLNAYQGLTAVDVTDDSSLIAGGFADSTVRVWSVTPKKLRSVKQASDLSLIDKESDDVLERIMDEKTASELKILYGHSGPVYGASFSPDRNYLLSSSEDGTVRLWSLQTFTCLVGYKGHNYPVWDTQFSPYGYYFVSGGHDRVARLWATDHYQPLRIFAGHLADVNCTRFHPNSNYVATGSADRTVRLWDVLNGNCVRIFTGHKGPIHSLTFSPNGRFLATGATDGRVLLWDIGHGLMVGELKGHTDTVCSLRFSRDGEILASGSMDNTVRLWDAIKAFEDLETDDFTTATGHINLPENSQELLLGTYMTKSTPVVHLHFTRRNLVLAAGAYSPQ

In the experiment the target is nucleoprotein N of Crimean-Congo hemorrhagic fever virus. Kind of experiment: AlphaScreen luminescence signal relative to Venus negative control (fold); higher = stronger binding to CCHFV N. Here is the method: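 AlphaScreen binding of cell-free made, FLAG-GST-tagged human transcription factors and regulators (crude translation products) to biotinylated N protein; signal as fold of the FLAG-GST-Venus control. One pass.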
For B1, the AlphaScreen luminescence signal was determined as 2.14.
To B2 belongs 1.12; to B3, 2.47; to B4, 50.2.
To B5 belongs 2.88.
Then B6, with 4.33.
B7: the AlphaScreen luminescence signal turned out to be 4.14.
To B8 belongs 8.93.
